In test [1] the test system is Acinetobacter baumannii AB6870155. Description: respiration area under curve on compound as sole carbon source (Biolog PM, 48 h) (arbitrary Omnilog units x h (AUC)); higher = more carbon source utilisation / respiration. The settings on record: Biolog inoculating fluid, temperature: 37 °C.
Test [2] has as its system Klebsiella pneumoniae KP6870155. The description is as above. As to conditions: Biolog inoculating fluid, temperature: 37 °C.

The list shows a part of the results.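 The calls were made as follows: active = average curve height above 101 Omnilog units; inactive = average height at or below 101.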 Most values come without repeats; read them as rough.

As to `OCC1(O)OC[C@@H](O)[C@@H](O)[C@H]1O` (stereo partly drawn) [D-Psicose], the figures for the “respiration area under curve” value in test [1] and in test [2] were inactive: 2970 and active: 10800, respectively.

With `C/C=C/C=C/C(=O)O` [Sorbic Acid], the “respiration area under curve” value in test [1] was active: 11000; in test [2] it was inactive: 3710.

With `NCC(=O)N[C@@H](CCC(=O)O)C(=O)O` [Glycyl-L-Glutamic Acid], the “respiration area under curve” value in test [1] is inactive: 2600; in test [2], active: 10900.

Regarding `Nc1ncnc2c1ncn2[C@H]1C[C@H](O)[C@@H](CO)O1` [2-Deoxy Adenosine], the “respiration area under curve” value was inactive: 1730 in test [1] and active: 11800 in test [2].

Consider `NCCC[C@H](N)C(=O)O` [L-Ornithine], for which the “respiration area under curve” value was active: 11100 in test [1] and inactive: 5670 in test [2].

For the compound `COC(=O)CCC(=O)O` [Mono Methyl Succinate], the “respiration area under curve” value in test [1] is inactive: 4720; in test [2], inactive: 6010.

For `O=C(O)[C@H](O)[C@@H](O)[C@H](O)[C@H](O)CO[C@H]1O[C@H](CO)[C@H](O)[C@H](O)[C@H]1O` [Melibionic Acid], the “respiration area under curve” value in test [1] is inactive: 1550; in test [2], active: 11400.

For `N[C@@H](CCC(=O)O)C(=O)O` [L-Glutamic Acid], the figures for the “respiration area under curve” value in test [1] and in test [2] were active: 12100 and active: 11200, respectively.

`N[C@@H](CCO)C(=O)O` [L-Homoserine]: the “respiration area under curve” value in test [1] is inactive: 1240; in test [2] it was inactive: 3200.

With `O=C(CO)[C@@H](O)[C@H](O)[C@H](O)CO[C@H]1O[C@H](CO)[C@@H](O)[C@H](O)[C@H]1O` [Palatinose], the “respiration area under curve” value is inactive: 2640 in test [1] and active: 10800 in test [2].

`OC[C@H]1OC(O)[C@H](O)[C@@H](O)[C@H]1O` (stereo partly drawn) [D-Galactose]: the “respiration area under curve” value is inactive: 2720 in test [1] and active: 12300 in test [2].

Regarding `O=C(O)[C@@H](O)[C@@H](O)[C@H](O)[C@@H](O)C(=O)O` [D-Saccharic Acid], the “respiration area under curve” value in test [1] was active: 12300; in test [2], active: 12600.

Take `O=C1CC[C@@H](C(=O)O)N1` [L-Pyroglutamic Acid]: the “respiration area under curve” value in test [1] is active: 12100; in test [2], inactive: 3880.

Take `NC(=O)[C@H]1O[C@@H](O)[C@H](O)[C@@H](O)[C@@H]1O` [Glucuronamide]: the “respiration area under curve” value was inactive: 6600 in test [1] and active: 8520 in test [2].

On to `CO[C@H]1O[C@H](CO)[C@@H](O)[C@H](O)[C@H]1O` [Alpha-Methyl-D-Glucoside], for which the “respiration area under curve” value in test [1] was inactive: 1580; in test [2], inactive: 4820.

Values taken from the supplement of paper PMC9911699.
